In paper PMC4336329 (PLoS ONE, 2015):
Out of some 310,000 compounds screened, about 14,000 (4.5%) showed an effect of 50% or more. Effects have a minus sign here. This is one part of the list.

biological target: human ether-à-go-go-related gene (hERG) potassium channel (human, UniProt Q12809); assay: primary screen, population patch clamp on CHO cells stably expressing hERG
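Note: peak tail current of the secondary pulse compared with the same well before compound.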

Sequence of human ether-à-go-go-related gene (hERG) potassium channel (Q12809 whole entry, looked up): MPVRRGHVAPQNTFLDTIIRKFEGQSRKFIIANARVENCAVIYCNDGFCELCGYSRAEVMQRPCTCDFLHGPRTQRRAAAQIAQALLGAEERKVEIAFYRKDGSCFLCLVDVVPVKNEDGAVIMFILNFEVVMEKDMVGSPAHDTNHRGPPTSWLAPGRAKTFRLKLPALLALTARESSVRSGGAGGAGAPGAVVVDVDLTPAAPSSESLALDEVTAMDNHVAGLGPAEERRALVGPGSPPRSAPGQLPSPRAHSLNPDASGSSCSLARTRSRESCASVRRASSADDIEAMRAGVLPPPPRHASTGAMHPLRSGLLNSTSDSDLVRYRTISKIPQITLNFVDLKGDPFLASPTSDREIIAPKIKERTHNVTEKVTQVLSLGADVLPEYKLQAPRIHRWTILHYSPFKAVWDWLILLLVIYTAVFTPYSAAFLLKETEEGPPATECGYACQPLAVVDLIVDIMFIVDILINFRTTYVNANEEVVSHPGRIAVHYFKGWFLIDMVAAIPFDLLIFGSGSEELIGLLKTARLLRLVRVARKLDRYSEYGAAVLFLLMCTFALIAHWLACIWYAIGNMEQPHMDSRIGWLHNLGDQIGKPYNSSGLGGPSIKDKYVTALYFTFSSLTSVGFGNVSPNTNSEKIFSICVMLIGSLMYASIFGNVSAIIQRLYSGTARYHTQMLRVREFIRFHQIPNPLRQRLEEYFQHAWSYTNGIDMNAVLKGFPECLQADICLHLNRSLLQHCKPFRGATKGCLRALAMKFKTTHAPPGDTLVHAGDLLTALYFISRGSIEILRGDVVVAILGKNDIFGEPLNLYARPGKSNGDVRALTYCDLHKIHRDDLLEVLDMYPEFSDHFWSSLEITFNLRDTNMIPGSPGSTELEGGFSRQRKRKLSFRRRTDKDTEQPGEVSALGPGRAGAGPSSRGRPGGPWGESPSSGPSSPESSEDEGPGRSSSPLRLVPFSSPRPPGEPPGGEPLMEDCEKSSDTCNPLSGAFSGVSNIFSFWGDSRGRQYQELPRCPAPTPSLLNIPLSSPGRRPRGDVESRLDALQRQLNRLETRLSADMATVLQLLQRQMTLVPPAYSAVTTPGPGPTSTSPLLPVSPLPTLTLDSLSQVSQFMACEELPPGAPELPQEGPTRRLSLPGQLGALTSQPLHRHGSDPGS

SMILES | hERG current change (%, negative = inhibition) at 10uM [%]
O=C(CCN1C(=O)C2CCCCC2C1=O)Nc1ccc(Br)cc1F (stereo not drawn) | -4.16
Cc1c(S(=O)(=O)N2CCN(c3ccc(F)cc3)CC2)c(=O)n(C)c(=O)n1C | -24.7
COc1ccc(-c2cc(C(=O)Nc3cccc(Cl)c3)no2)cc1 | 19.9
CCOc1cc(/C=N/NC(N)=O)ccc1OC(=O)c1ccc(C)cc1 | 7.74
Cc1cccc(C)c1Nc1ncnc2ccccc12.Cl | 16.8
Brc1cc2c(cc1C1Nc3ccccc3C3C=CCC31)OCO2 (stereo not drawn) | -6.37
Cc1nc(SCC(=O)c2cccs2)c2oc3ccccc3c2n1 | 13.4
COc1cc(Cl)c(C)cc1NC(=O)CSc1nnc(CCC(=O)O)c(=O)[nH]1 | 17.9
CN=C1CC(SC)=C1c1ccc(C)cc1 | -7.16
O=C(c1ccccc1)[C@H]1[C@H](c2ccccc2)[C@@]2(N=C(c3ccccc3)OC2=O)C2c3ccccc3C=NN21 (stereo partly drawn) | 2.86
Cc1nn(CC(=O)NC(C)CCc2ccccc2)c(=O)c2nn(-c3ccccc3)c(C)c12 (stereo not drawn) | 23
CCC(C)NC(=O)CSc1ccc(Cl)cc1 (stereo not drawn) | 4.32
COc1cc(SSc2cc(OC)cc([N+](=O)[O-])c2N)c(N)c([N+](=O)[O-])c1 | 7.62
COc1ccc(CC(NC(C)=O)C(=O)NC2CCN(c3nnnn3-c3ccccc3)CC2)cc1OC (stereo not drawn) | 14.2
CC(OC(=O)Cc1c[nH]c2ccccc12)C(=O)Nc1ccc(S(N)(=O)=O)cc1 (stereo not drawn) | 0.959
Cc1ccc(S(=O)(=O)Cn2nnnc2CN2CCN(Cc3ccc4c(c3)OCO4)CC2)cc1 | -28.7
Cn1c(CC(=O)Nc2ccccc2F)nnc1SCC(=O)NC1=NCCS1 | 20.6
O=C(Cn1nc(-c2cccc(Cl)c2)ccc1=O)NCC1COCCO1 (stereo not drawn) | -4.1
CCc1cccc(NS(=O)(=O)c2c(C)nc3scc(C)n3c2=O)c1 | 9.84
Cc1cc(NC(=O)Cn2c(=O)n(Cc3ccccc3)c(=O)c3ccccc32)no1 | 8.1
CC(C(=O)Nc1ccc(C(=O)O)c(O)c1)N1C(=O)/C(=C\c2ccco2)SC1=S (stereo not drawn) | 28.8
Cc1ccc(Nc2nc(Cl)c(C=O)s2)cc1Cl | 8.41

SMILES | hERG current change (%, negative = inhibition) at 10uM [%]
CC(C)N(C(=O)c1ccccc1-c1ccccc1)C(C)C | -18.9
CCc1cc(CNC(=O)c2ccc3nc(Cc4ccc(OC)c(OC)c4)oc3c2)on1 | 5.04
CCCc1cc(C(=O)O)c2ccccc2n1 | 2.31
Cc1ccc(S(=O)(=O)N(C)c2ccccc2C(=O)N2CCOCC2)cc1 | 4.91
C=CCn1c(=S)[nH]c2sc3c(c2c1=O)CCCC3 | 18.9
Cc1ccc(C(CCN(Cc2ccccc2)C(=O)c2ccco2)c2ccco2)cc1 (stereo not drawn) | -5.13
CC(C)Sc1ccc([N+](=O)[O-])cc1C(=O)Nc1ccncc1 | -11.7
CCN(CC)c1ccc(/C=C2/C(=O)ON=C2C)cc1 | -20.9
COc1ccc(-c2ccc(SCC(=O)c3cccs3)nn2)cc1OC | -1.36
CSc1ccc(CN2CCC(CO)(Cc3ccc(Cl)cc3)CC2)cc1 | -81.3
CCOc1ccc(C2c3c(oc4ccccc4c3=O)C(=O)N2CCCN2CCOCC2)cc1 (stereo not drawn) | 7.34
Cc1ccc(C(=O)NCc2ccc(Cl)c(Cl)c2)o1 | -10.8
Cn1c(=O)[nH]c(=O)c2c1nc(SCCN1CCCCC1)n2CCCc1ccccc1 | -69
O=C(NCc1ccc(F)cc1)c1cc(S(=O)(=O)N2CCCCC2)ccc1Cl | 7.59
C[C@H](NC(=O)c1ccco1)C(=O)NCCc1ccc(S(N)(=O)=O)cc1 | 15.8
Cc1cc(=O)n2nc(N3CCC(C(=O)NC4CCCc5ccccc54)CC3)sc2n1 (stereo not drawn) | -19.3
CCN(CC)CCn1c2c(c(SCC(=O)Nc3nccs3)nc1=O)CCCC2 | -59.5
Cl.OCCNCc1cccc2ccccc12 | 20.9
CC1CN(C(=O)CCc2ccccc2)C(C)CN1C(=O)CCc1ccccc1 (stereo not drawn) | -60.4
CC12CC3(C)CC(C)(C1)CC(C(=O)NCCc1ccc(S(N)(=O)=O)cc1)(C2)C3 | -14.9
Cc1ccc(N2CC(C(=O)NCCS(=O)(=O)N3CCN(c4ccccc4F)CC3)CC2=O)cc1 (stereo not drawn) | 13.2
CN(C)S(=O)(=O)c1cccc(NC(=O)CNCc2ccccn2)c1.O=C(O)C(=O)O | 12.2

SMILES | hERG current change (%, negative = inhibition) at 10uM [%]
Cn1c(=O)c2c(nc(N3CCCCC3)n2C)n(C)c1=O | -21.5
Cc1ccc(NC(=O)Nc2ccc3c(c2)OCO3)cc1F | -15.8
CN1C(=O)c2oc3ccccc3c(=O)c2C1c1ccccn1 (stereo not drawn) | 0.972
Cn1nc(C(=O)Nc2ccc3c(c2)OCCO3)cc1C(=O)O | 33.3
CC(=O)c1ccc(NS(=O)(=O)c2c(C)cc(C)cc2C)cc1 | 17.9
CC(NC(=O)C(=O)NCc1cccs1)c1ccccc1 (stereo not drawn) | 16.9
Cc1ccccc1N(C)C(=O)c1coc(=O)c2ccccc12 | 10.3
Cc1ccccc1N(CC(=O)NCC1CCCO1)C(=O)CNS(=O)(=O)c1ccc(F)cc1 (stereo not drawn) | 1.78
Cc1cccnc1NC(=O)CCC(=O)c1cccs1 | 2.93
COc1cc(C2C3=C(CCCC3=O)Nc3[nH]n(-c4ccccc4)c(=O)c32)ccc1O (stereo not drawn) | -14.2
CC1=C(C(=O)OC(C)(C)C)C(c2cccc3ccccc23)NC(=O)N1 (stereo not drawn) | 8.44
COc1ccc(CN2C(=O)c3ccccc3C2OC)cc1 (stereo not drawn) | 6.22
COc1ccccc1CN1C[C@@H]2C[C@@H](c3[nH]c4ccc(C)cc4c3C)N3CCC[C@@]23C1=O | -30.7
CCCCN(C(=O)C1CCCO1)c1c(N)n(CC(C)C)c(=O)[nH]c1=O (stereo not drawn) | -4.18
COc1ccc(C(=O)Nc2nnc(SCC(=O)NCc3ccco3)s2)c(OC)c1 | 5.5
O=C(CNC(=O)c1ccccc1Br)N/N=C/c1cc(Br)ccc1O | 17.5
COc1ccc(CCC(=O)N2CCCC(Nc3ccc(C)c(C)c3)C2)cc1OC (stereo not drawn) | -5.96
COc1ccc(CNC(=O)CN2C(=O)NC(Cc3ccccc3)(c3ccccc3)C2=O)cc1OC (stereo not drawn) | -12.2
CNc1ccc(S(=O)(=O)NCC(=O)OCC(=O)Nc2cccc(Cl)c2Cl)cc1[N+](=O)[O-] | -12.7
COc1ccc(Cl)cc1C(=O)Nc1ccc(N(C)C(C)=O)cc1 | 10.2
Cc1nn(CCCC(=O)Nc2ccccn2)c(C)c1[N+](=O)[O-] | 18.3
CCOCCCNC(=O)C(c1ccc(OC)cc1)N(Cc1ccc2c(c1)OCO2)C(=O)c1ccccn1 (stereo not drawn) | 2.61

SMILES | hERG current change (%, negative = inhibition) at 10uM [%]
Cc1cccn2c(CN3CCCN(C=O)CC3)c(C(=O)N(C)CCc3ccccc3)nc12 | 26.6
COc1ccc(N(CC(=O)Nc2ccccc2C(=O)N2CCOCC2)S(=O)(=O)c2ccc(F)cc2)cc1 | -44.6
COc1ccc(C(=O)NCc2nnc(SCC(=O)N3CCc4ccccc43)n2CCc2ccccc2)cc1 | -19.1
CN1CCN(CCOc2cccc(Cl)c2)CC1.Cl | 1.19
O=C(N/N=C/c1ccc(Br)s1)c1cccs1 | 0.404
Cc1nc2c(sc3nc(N4CCOCC4)c4c(c32)CC(C)(C)OC4)c(-c2ccc(Cl)cc2)c1C(=O)O | -5.71
CC(C)c1ccccc1NC(=O)c1ccc2ncsc2c1 | -1.98
Cc1ccccc1C([O-])=Nc1ccc[n+](-c2nc3ccccc3nc2NS(=O)(=O)c2ccccc2)c1 | -3.51
COc1ccc(Cl)c(Cn2c(NCCCO)nc3c2c(=O)n(C)c(=O)n3C)c1 | -3.49
Cc1cc2nc(-c3cccnc3SCC(=O)NC3CC3)[nH]c2cc1C | 7.59
O=C(CC1Sc2ccccc2NC1=O)OCc1cc(=O)oc2cc(O)ccc12 (stereo not drawn) | -51.7
Cc1c(NC(=O)CN2CCC(C(N)=O)CC2)cccc1[N+](=O)[O-] | 26.4
COc1ccc(CCNC(=O)c2cccn2C)cc1 | 20.4
Cc1ccc2c(CN3CCCCC3)cc(=O)oc2c1 | -16.1
Cc1c(NC(=O)CSc2nnnn2-c2ccc(F)cc2)c(=O)n(-c2ccccc2)n1C | -2.74
Cc1ccc(S(=O)(=O)N(CC(=O)O)Cc2ccccc2F)cc1 | 3.18
CCOC(=O)c1c(C)[nH]c(N=Nc2ccccc2)c1C | 11.3
C=C(C)n1c(=O)[nH]c2ccccc21 | 19.2
Cc1nc2ccccc2c(=O)[nH]1 | 3.94
O=C1NCCN/C1=C\C(=O)c1ccc(Cl)cc1 | -1.74
CC(=O)C(C)n1c(CN(C)Cc2ccccc2)nc2c1c(=O)n(C)c(=O)n2C (stereo not drawn) | -5.4
